# According to the supplement of paper PMC11417369:
# ± gives the standard deviation of the averaged measurements. The list shows a part of the results.
# System: PfAP2-G AP2 domain (GST-tagged)
# Test: gcPBM binding intensity (ln(normalized median fluorescence intensity)); higher = stronger DNA binding
# Method in brief: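 Binding intensity is defined as the maximum Masliner-normalised natural-log median intensity across replicate spots for either probe orientation. It was measured on an Agilent 4 × 180k array of primer-extended double-stranded 36-bp intergenic genomic probes and negative controls, to which GST-tagged P. falciparum DNA-binding domains made in E. coli were applied for 1 h in 1× PBS with 1% milk, 0.2 mg/ml BSA, 0.5% salmon testes DNA and 0.03% Triton X-100. Detection was by Alexa488 anti-GST antibody and scanning at 488 nm.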
row,Sequence,gcPBM binding intensity (ln)
1,TACACGTTCTACATTTGTACTTAATTTATACATAAG [XGTACX_site1579],11.2 ± 0.73
2,TACGTCTTTTTTTTGGTGCATAATTTTTTTGTACAA,10.8 ± 0.44
3,AATTTTGTTAAAAGGACACACAATTCAATATATTAA [CACACA_site647],11.1 ± 0.73
4,ATTACATGATATATCACACACACATATAGATATATA [CACACA_site7352],9.97 ± 0.042
5,GCTATTAATTTATAAGCACACAATATAAATATATAT [CACACA_site2251],10 ± 0.11
6,CATACATAGATATATACACACATACCTATAAATACA [CACACA_site6513],10.1 ± 0.23
7,TATATATGTGTTATATACCCTTTTTTATATATTAAT [XGTACX_negctrl_site313],9.96 ± 0.13
8,TAAAAATCCACAAGCACACAAATGTACATATATATA [CACACA_site2462],11.1 ± 0.55
9,ATAGAACAGAAAAGGCGTACAATAATATGTAAACAA [XGTACX_site2828],11.8 ± 1.1
10,AAAAAAAAAATATGTACACACATATATAATACATAA [CACACA_site1639],11.5 ± 0.91
11,TATAAAAAGCATAACACACACATGTCAATATATATA [CACACA_site1111],9.98 ± 0.2
12,ATTAAAAAAATATAAACACACAAAAAAAAAATATAC [CACACA_site1100],10.1 ± 0.15
13,TAATGAAAAAATAAAAGAATAAATAAATAAATAAAT [TGCATGCA_negctrl_site130],9.32 ± 0.23
14,AGAAAAGAGAAAAGTAGTACAAAGGATCATTTAAAA [XGTACX_site5294],11.3 ± 0.71
15,TTAAGTCCGTTAACAGTGCATTTTTTCTTTTATGTA [GTGCAC_site9867],10.2 ± 0.11
16,AAAAATTATATATATATATATATATATATATGTATA [GTGCAC_negctrl_site488],9.515 ± 0.021
17,TGGTAAATTTACCGTTGTACATTCATTTATAACATT [XGTACX_site8910],10.8 ± 0.51
18,AAGAATATTAATATAAATAAGTAAATAAATAAATAA [CACACA_negctrl_site417],9.78 ± 0.11
19,CATATGTCTTGAGATCGTACGTTATTTTTTTTATTT [XGTACX_site1381],10.9 ± 0.4
20,TATATATATATATATATATATATATATATATGTATA [TGCATGCA_negctrl_site17],9.72 ± 0.67
21,GTATTATTATTATGCACACAAAAATATTTATACATA [CACACA_site3656],10.3 ± 0.27
22,TATAAATTTAAAATGACACACACTAAAATTATTTAA [CACACA_site1239],10.3 ± 0.33

row,Sequence,gcPBM binding intensity (ln)
1,TTTTAATCTTAATTATGTACATATAAAATGTGTATA [XGTACX_site7382],11.2 ± 0.69
2,CTATTTCAATTTAGTGCACACATTTTAATTTATAAG [CACACA_site2040],10.7 ± 0.55
3,ACATACACATATACATGTACATATATATATATATAT [XGTACX_site5082],11 ± 0.58
4,TATGAAAAGATATATACACACATAATAAAGGTATAT [CACACA_site7713],10.08 ± 0.057
5,CATTATTATTAACATACACACGTGTTAAATACACCC [CACACA_site6118],10.4 ± 0.35
6,ATTAAAACAAAATGTACACACATATCATTTAATGAC [CACACA_site6543],11.2 ± 0.8
7,TTTTTAGAAAGACATGCATGTAATAAAAATAAATAA [TGCATGCA_site685],9.855 ± 0.049
8,ATACATATATGCTTCTGTACACATAATTTATAAAAA [XGTACX_site7000],11.6 ± 0.79
9,ATATTCATTAACCACACACACAAAAAAAATAAAATT [CACACA_site3801],10.2 ± 0.25
10,ATATATGTATTTAATACACACAAAACTTTCATTCCA [CACACA_site3531],10 ± 0.15
11,AAATATAATAACATAACACACACATGTATTTATAGG [CACACA_site8009],10.2 ± 0.2
12,TTTTAATAAATTCAAAACATAAAAAGGAAAAAAAAA [XGTACX_negctrl_site471],9.81 ± 0.2
13,TAGATTTTTATGCGTGCACACATTTAAAAAAAAAAC [CACACA_site3421],10.6 ± 0.48
14,ATACCTACATACATACGTACATATATATATATAATG [XGTACX_site234],11.4 ± 0.91
15,TTTTTTTCATAAGAAGCACACAAAAAATGATAGAGA [CACACA_site8401],10.5 ± 0.38
16,ATATATATATATATATGTACTTATTTGTATAAATAC [XGTACX_site8031],11.3 ± 0.96
17,TATAATGAGAAGATATAATATATAGGGGGTAATTCT [GTGCAC_negctrl_site228],10.5 ± 0.16
18,ATTCTTTATTATTCGCCACACACATATATATATATA [CACACA_site9009],10.3 ± 0.24
19,TTTTTATTATTCCATAGTACAGAAAAAATGATATAT [XGTACX_site3431],10.9 ± 0.64
20,TATTGGAAAATTAGAAGTACTTTCATATATTAGACT [XGTACX_site4503],11.3 ± 0.81
21,ATATTTTCCCTTGTTTTACACACGTGCTGATATGAG [CACACA_site8672],10.3 ± 0.14
22,AATTTGAAATATGTGGTGCAGTTATATAATATGTTT [GTGCAC_site9885],10.29 ± 0.049

row,Sequence,gcPBM binding intensity (ln)
1,ATATAAAAAAATAATAAATAAATAAAAAGATTTCTT [XGTACX_negctrl_site110],9.47 ± 0.23
2,CTTGTATAGAAACACACACACACTTTCTTTTTTTAA [CACACA_site1964],10.2 ± 0.23
3,TATATTAATAAAGGTACTACACGGAAATGGAAATAT [XGTACX_site7760],11.3 ± 0.68
4,TGTAGTCTGGAGAAAAGTACACAGTATCTGGTAACC [XGTACX_site2033],11.4 ± 0.94
5,ATATAGAATAAAACTATACACACCTATATTTAAACA [CACACA_site1902],9.88 ± 0.042
6,TGTAATCAAAAAAATAGTACATAAATTGTGTATACT [XGTACX_site5908],11.3 ± 0.81
7,AACAAATACGAACACACACACACACTAAAAAAAAAA [CACACA_site6386],10.4 ± 0.42
8,AGGATATAATACCATACACACATTTATAAAATAACA [CACACA_site1930],10.13 ± 0.078
9,ATAATATGAAAACACACACACACACCCAAAAAAAAA [CACACA_site2011],10.4 ± 0.38
10,CACATTAATTTTTGGGTGCACTTGGGAAATTTTGGT,10.8 ± 0.49
11,ATATATATTATATATATATATATATATATATATATA [CACACA_negctrl_site493],9.71 ± 0.59
12,TAATAAATAAATGACACACACACACGCAAAAAAAAA [CACACA_site7275],10.4 ± 0.32
13,TACGAAAAAAAAAAAAAAAAAAAAAAACACAAAAAA [CACACA_negctrl_site1643],9.7 ± 0.21
14,AATACCATAATCAATGCACACATAACAAAATATTAT [CACACA_site8873],10.08 ± 0.071
15,TATTTTTTTTCTTTATTTATAACGCTCAATATATTC [GTGCAC_negctrl_site265],9.97 ± 0.042
16,TGGAAATATATATATATATATACATATATATATAGC [XGTACX_negctrl_site107],9.455 ± 0.007
17,TTTTTATATTTTATAGTGCAAAAACTTACATAAAAT,10.1 ± 0.28
18,ATATAATGGACCATAGTGCATAAAAATAACAAAAAA [GTGCAC_site9558],10.6 ± 0.4
19,AGAGACACTTTTTATTGTACAAGAGGAGGTTACCTT [XGTACX_site8768],10.8 ± 0.46
20,TTTTAATATTTTAAGAGTACAGAAATATATAATATG [XGTACX_site4955],11.4 ± 0.99
21,ATTTTATAACATTCATGTACACATTTCATTTATTTG [XGTACX_site3028],11.3 ± 0.77
22,CATATAAATATATATACACACACACCGTAATACATA [CACACA_site9158],10.2 ± 0.078

row,Sequence,gcPBM binding intensity (ln)
1,GCCATTGTACCATCCACACACATATAAATATGTATA [CACACA_site7303],10.9 ± 0.56
2,TAAATATATATATACACACACACCAAAGCAATAGAT [CACACA_site2940],10.3 ± 0.16
3,TTATATATACCTAAGACACACACATATATATATATA [CACACA_site8153],10.2 ± 0.33
4,ATTAAATATGTCAAGTGTACAAAATGTAAAAAAAAA [XGTACX_site4119],11.1 ± 0.57
5,TTGTTATCTACCTGTAGTACATATATTATGTAATAT [XGTACX_site735],11.4 ± 0.88
6,TATGAAGAAAAGAATTGTACGATGTTTATTTTGTAT [XGTACX_site8614],10.8 ± 0.49
7,TGTTAATAGAAATACGTGCACACTAAAGGGAAAACA [CACACA_site1485],10.6 ± 0.43
8,TATATAACATATAACACACATACTTAGTATTACATA [CACACA_site3099],9.84 ± 0.057
9,ACAGTATCAATATGGATAAAAATGTCCATATGCCTG [TGCATGCA_negctrl_site482],10.3 ± 0.28
10,ATATATATATTATATGCACACTTATATTTCATTAGA [CACACA_site5439],9.98 ± 0.16
11,TATTTATAAATGAACACACACGCAATTTGAATCGAA [CACACA_site3371],10.3 ± 0.18
12,TTTTTATATTTCAACATATCACAATTTTATATATCT [CACACA_negctrl_site178],9.72 ± 0.21
13,AACACATACAGATATGCACACATTTTATTCCATTAT [CACACA_site5565],9.95 ± 0.22
14,TTTTTTATGCTAACTTCTTTTTCCTTATAAAATTGG [TGCATGCA_negctrl_site598],10.02 ± 0.071
15,ATTTTTTTTATTATTACACACATATAACAAAAAAAT [CACACA_site6934],10.2 ± 0.26
16,CTATATCATTTTCTAGCACACACATTGTTATTACCT [CACACA_site8204],10.2 ± 0.014
17,GAATATAAACCTATTACACACATCTATATGTACATT [CACACA_site1914],10.9 ± 0.5
18,AAAAAGAAAAAATATATTCGTCTATTATAAACAATA [CACACA_negctrl_site648],9.48 ± 0.25
19,GAATATATATTCATATGTACACAATTTATGTATTAT [XGTACX_site4719],11.4 ± 0.79
20,AAGGTAAACAGACACACACACATACAAAAAAAAAAA [CACACA_site3768],10.3 ± 0.52
21,TAAATATTAACAATCGCACACATATTATTTTTCCAA [CACACA_site1626],9.93 ± 0.042
22,TAAAGGCAAACAAACACACACACATAAATACAGATA [CACACA_site5204],10.08 ± 0.099
